Laboratory results from the CheMixHub viscosity set.
± gives the uncertainty stated by the source. This continues a long series; more values of the same kind are listed elsewhere.

Conditions: 298.15 K; 101 kPa

viscosity: 71.1 ± 1.9 mPa·s
SMILES: CCCC[n+]1ccn(C)c1.O=C([O-])C(F)(F)F
